Assay results as given in PubChem BioAssay AID485344 (National Center for Advancing Translational Sciences (NCATS), 2010).
The campaign covered roughly 340,000 compounds. About 6,900 (2%) were called active. Cut-off read from the data, not from the text of the source: active = inhibition above about 30%; inactive = below that, where a call was filed. The entries are a selection whose mix differs from that of the whole data set. The source gives no active or inactive call for entries shown without one.

The molecules below were run against D(2) dopamine receptor (Homo sapiens) (UniProt P14416) (assay: HTS Assay for Allosteric Antagonists of the Human D2 Dopamine Receptor: Primary Screen for Antagonists). Conditions: HEK293 TREx D2 cells, calcium flux, dopamine EC80; at 10 µM; stronger effect = higher value.
UniProt P14416, sequence (P14416 whole entry, looked up): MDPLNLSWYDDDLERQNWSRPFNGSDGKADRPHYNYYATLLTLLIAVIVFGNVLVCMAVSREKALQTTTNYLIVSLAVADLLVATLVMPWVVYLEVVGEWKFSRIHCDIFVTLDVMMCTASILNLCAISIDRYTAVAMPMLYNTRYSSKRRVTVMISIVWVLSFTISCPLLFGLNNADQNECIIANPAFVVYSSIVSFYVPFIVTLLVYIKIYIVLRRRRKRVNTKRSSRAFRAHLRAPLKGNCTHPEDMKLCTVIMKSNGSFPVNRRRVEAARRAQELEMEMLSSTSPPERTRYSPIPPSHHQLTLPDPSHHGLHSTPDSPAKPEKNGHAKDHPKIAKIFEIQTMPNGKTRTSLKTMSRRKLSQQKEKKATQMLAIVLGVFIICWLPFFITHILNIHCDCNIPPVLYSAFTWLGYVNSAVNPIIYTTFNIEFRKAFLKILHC
Procedure, shortened: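 Inhibition of EC80 dopamine-driven calcium flux, recorded kinetically, defines activity here; cells are a tetracycline-induced HEK293 T-REx line expressing force-coupled D2.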
Note: 0% is about no effect.

Row | SMILES | inhibition
1 | CCc1nc2sc3c(N4CCC(C)CC4)ncnc3c2c2c1CCCC2 | -1.23%
2 | Cc1ccc(CN(C(=O)COc2ccc(Cl)c(C)c2)c2ccccn2)o1 | 6.03%
3 | O=C(CN1C(=O)COc2ccc(S(=O)(=O)N3CCOCC3)cc21)N1CCN(c2cccc(C(F)(F)F)c2)CC1 | 14.4%
4 | COc1cc(C2c3c(-c4c(C)cc(C)cc4O)n[nH]c3C(=O)N2CCO)cc(OC)c1OC (configuration not stated) | 10.4%
5 | Cc1ccc(-c2cc(-c3ccc4c(c3)NC(=O)CO4)nc3c2COc2ccc(C)cc2-3)cc1 | 6%
6 | CN(C)S(=O)(=O)c1ccc(C(=O)NCCS(=O)(=O)N2CCN(c3ccccc3)CC2)cc1 | -15.1%
7 | Cc1nc2nc(SCc3c(F)cccc3Cl)nn2c(C)c1Cc1ccccc1 | 11.8%
8 | COCCNC(=O)C(=O)NCC(c1cccnc1)N1CCN(c2ccccc2OC)CC1 (configuration not stated) | 7.76%
9 | CC(C)(C)NC(=O)c1cnn(-c2ccccc2)c1C1CCN(C(=O)OC(C)(C)C)CC1 | -3.19%
10 | O=C(NCc1ccccc1Cl)c1cc2c(s1)-c1ccccc1SC2 | -4.02%
11 | O=C(Cn1ncc2c3ccccc3n(Cc3ccccc3F)c2c1=O)NC1CCCCCC1 | 7.24%
12 | Cc1ccc(CSc2ccc(-c3cccs3)nn2)cc1 | 4.55%
13 | O=S(=O)(Nc1cccc(-c2ccc(N3CCCCCC3)nn2)c1)c1ccccc1F | -2.9%
14 | CCCNC(=S)NC1CC2CCC(C1)N2Cc1ccccc1 (configuration not stated) | active: 67.3%
15 | COc1cc(C(=O)NCC(c2cccnc2)N2CCc3ccccc3C2)cc(OC)c1OC (configuration not stated) | 21.4%
16 | CCC(=O)Nc1ccccc1-c1nc2ccccc2n(CC(=O)c2ccc(C)c(C)c2)c1=O | 15.7%
17 | COc1cccc(NC(=O)CSc2nc3c([nH]c4ccccc43)c(=O)n2-c2ccccc2)c1 | 6.92%
18 | CCCN1C(=O)c2[nH]nc(-c3ccccc3O)c2C1c1cccc(OCc2ccccc2)c1 (configuration not stated) | -5.69%
19 | Cc1ccc(NC(=O)CSc2nnc(C)n3c2cc2sccc23)c(C)c1 | -9.8%
20 | COc1cc(OC)c(NC(=O)C(CC(C)C)N2Cc3ccccc3C2=O)cc1Cl (configuration not stated) | -16.9%
21 | CCOc1ccccc1NC(=O)CSc1cn(CC(=O)N2CCCCCC2)c2ccccc12 | 7.58%
22 | Nc1nonc1-c1nc2ccccc2n1CC(=O)Nc1cccc(C(F)(F)F)c1 | -5.56%
23 | COc1ccc(C)cc1NC(=O)CSc1ncc2c(n1)-c1ccc(Cl)cc1N(Cc1ccccc1)S2(=O)=O | 5.79%
24 | Cc1ccc(NC(=O)CCN2C(=O)c3ccccc3Sc3ncccc32)cc1 | 8.66%
25 | CC1=C(C(=O)Nc2ccccc2)C(c2ccc(F)cc2)n2nc(SCc3cc(C)ccc3C)nc2N1 (configuration not stated) | -4.49%

Row | SMILES | inhibition
26 | COC(=O)c1ccc(NC(=O)C(=O)NCCc2csc3nc(-c4ccccc4F)nn23)cc1 | 7.51%
27 | NC(=O)c1cc2ccccc2o/c1=N/NC(=O)c1cccc(Cl)c1 | active: 49%
28 | CCN(CC)S(=O)(=O)c1ccc2c(c1)N(CC(=O)Nc1cccc(C)c1C)C(=O)C1CCCN21 (configuration not stated) | 7.51%
29 | COc1cccc(-c2noc(-c3cc4ccccc4oc3=O)n2)c1OC | -0.614%
30 | CC(=O)Nc1ccc(OCC(O)CN2CCN(c3cc(Cl)ccc3C)CC2)cc1 (configuration not stated) | active: 92.6%
31 | O=C(NCc1ccc2c(c1)CCN2C(=O)c1ccc(F)cc1)c1c(F)cccc1F | 8%
32 | CCOCCCNC(=O)Cn1ncc2c([nH]c3ccccc32)c1=O | 15.8%
33 | CCN(C(=O)COC(=O)/C(C#N)=C/c1ccc(OC)cc1)C1CCS(=O)(=O)C1 (configuration not stated) | active: 35.6%
34 | Clc1ccccc1CNCCCSc1nnnn1-c1ccccc1 | -9.6%
35 | CCOc1ccc(/C=C/c2nc(C#N)c(NCc3ccc(OC)cc3)o2)cc1 | -8.57%
36 | COCCn1c(C)cc(O)c(C(c2ccccc2)N2CCCCC2)c1=O (configuration not stated) | 2.5%
37 | CCc1ccccc1NC(=O)N1CCN(Cc2nc3ccc(C)cc3o2)CC1 | 1.57%
38 | Cc1ccc(-n2ncc3c(Nc4ccc(Oc5ccccc5)cc4)ncnc32)cc1 | 14.1%
39 | Cn1nnc(NC(=O)CSc2ccc(Cl)cc2)n1 | active: 39.8%
40 | Cc1cccc(Cn2cc3c(=O)n(CC(=O)Nc4cccc(C)c4C)nc-3c3cc(F)ccc32)c1 | -2.9%
41 | Cc1c(C(=O)Nc2cccc(C(F)(F)F)c2)sc2nc3n(c(=O)c12)CCC3 | 26.8%
42 | CCCN(CCC)CCNC(=O)c1cc2c(=O)oc3ccc(C)cc3c2s1 | -8.92%
43 | COc1ccc(NC(=O)c2cc(C3CC3)nc3c2c(C)nn3-c2ccccc2)c(OC)c1 | 6.94%
44 | CC(C)Cc1nn2c(=O)cc(COC(=O)c3cccc(NC(=O)c4ccccc4)c3)nc2s1 | 12%
45 | Cc1cccc(N2CCN(C(=O)c3cc4ccc5cccnc5c4[nH]3)CC2)c1C | -3.73%
46 | COCCN(Cc1ccc(C)c(Br)c1)S(=O)(=O)c1ccc2[nH]c(=O)ccc2c1 | 23.1%
47 | CCOCCCNC(=O)Cn1ncc2c([nH]c3ccc(C)cc32)c1=O | 5.66%
48 | Cc1ccc(C)c(N2CCN(C3(c4ccccc4)C(=O)c4ccccc4C3=O)CC2)c1 | 5.11%
49 | Cc1noc(/C=C/N(C)C)c1S(=O)(=O)N1CCC(C(=O)NC(C)(C)C)CC1 | active: 31.5%
50 | CCOC(=O)c1ccc(NC(=O)c2cc(=O)c3ccc(C)c(C)c3o2)cc1 | 0.702%

Row | SMILES | inhibition
51 | CC(=O)N1CCc2cc(Br)cc(S(=O)(=O)CCC(=O)N3CCN(c4cccc(C)c4C)CC3)c21 | 2.36%
52 | Cn1nc(-c2ccccc2)c(-c2ccccc2)c(C(=O)Nc2ccccc2C(N)=O)c1=O | 8.98%
53 | CCCN(CCC)c1cc(C)nc2nc(-c3ccc(C(C)(C)C)cc3)nn12 | 23.9%
54 | CN(C)c1ccc(-c2nc3ccc(Cl)cn3c2Nc2ccc3c(c2)OCCO3)cc1 | -15.1%
55 | Cc1cc(C)cc(N2C(=O)CSC23C(=O)N(CC(N)=O)c2ccccc23)c1 (configuration not stated) | -0.975%
56 | CSc1cccc(Nc2cc(C(=O)NC3CCCCC3)c3ccccc3n2)c1 | -13.1%
57 | COc1cc2c(cc1OC)[C@@H]1Cc3ccc(OC)c(OC)c3CN1CC2 | active: 57.2%
58 | CCc1ccc2occ(CC(=O)Nc3c(C(=O)c4ccc(F)cc4)oc4ccccc34)c2c1 | -5.01%
59 | COc1ccc(C)cc1NC(=O)Cn1c(=O)oc2cc(S(=O)(=O)N3CCCCCC3)ccc21 | -17.6%
60 | CCCCCCSc1nc(N)c2c3c(sc2n1)CCCC3C (configuration not stated) | 10.9%
61 | CC(C)(C)C1CCc2c(sc(NC(=O)c3cc(-c4ccc(F)cc4)on3)c2C#N)C1 (configuration not stated) | -13.4%
62 | Cc1ccc(OCC(=O)OCc2cc(=O)n3nc(C4CC4)sc3n2)cc1C | -14.2%
63 | Cc1cc(C)cc(-n2ccn3cnnc3c2=O)c1 | 0.186%
64 | CCC(C(=O)NCCc1ccc(OC)c(OC)c1)n1nc(C)c2sc3ccccc3c2c1=O (configuration not stated) | 18%
65 | Cc1nc2c([nH]1)C1(CCN(Cc3ccccc3)CC1)C(C#N)=C(N)O2 | active: 60%
66 | CCCN(c1ccccc1F)S(=O)(=O)c1cc(-c2cc(C)no2)ccc1C | 5.51%
67 | CCc1nnc2c(Nc3cc(OC)c(Cl)cc3OC)nc3ccccc3n12 | -11.6%
68 | COc1ccc(-c2oc3ncn4nc(COc5ccc(Cl)cc5)nc4c3c2-c2ccc(OC)cc2)cc1 | -15.8%
69 | O=C(Nc1ccc2oc(-c3cccc4c(Br)cccc34)nc2c1)c1cccc(Cl)c1 | -1.7%
70 | Cc1ccc(OCCCC(=O)Nc2sc3c(c2C(N)=O)CCC(C)C3)cc1 (configuration not stated) | 11.5%
71 | CC(C)NC(=O)C1CCCN(S(=O)(=O)c2ccc3c(ccn3C)c2)C1 (configuration not stated) | 17.9%
72 | CCc1cccc(C)c1NC(=O)c1cc(CN2CCCC2)on1 | -8.75%
73 | COCCn1c(C)cc(O)c(C(c2cccc(F)c2)N2CCN(c3ccccc3)CC2)c1=O (configuration not stated) | -11.1%
74 | COc1ccc(N(CC(=O)N2CCN(c3cccc(Cl)c3)CC2)S(=O)(=O)c2c(C)noc2C)cc1 | 3.33%
75 | CCOc1ccc(C(=O)N2CC(=O)Nc3ccc(F)cc3C2c2ccc(F)cc2)cc1 (configuration not stated) | -0.836%

Row | SMILES | inhibition
76 | Cc1cccc(OCC(=O)Nc2ccc3nc(SCc4ccccc4)sc3c2)c1 | 10.9%
77 | CCc1ccc(CNC(=O)c2ccc(Cn3c(=O)c4cccn4c4cccnc43)cc2)cc1 | 7.02%
78 | CCCc1nnc(NC(=O)CSc2nnc3c4ccccc4n(CC)c3n2)s1 | 2.19%
79 | Cc1cc(Cl)ccc1NC(=O)C1CCCN(c2nnc(C)c3c(C)n(-c4ccccc4)nc23)C1 (configuration not stated) | -0.349%
80 | COc1cccc(CNC(=O)CCc2c(C)nn(-c3ccc(N4CCCC4)nn3)c2C)c1 | 0.129%
81 | Cc1cc(C)c(NC(=O)C(C)n2nc(C)c3sc4ccccc4c3c2=O)c(C)c1 (configuration not stated) | -26.4%
82 | COc1cccc(N2CC(NC(=O)c3cccs3)CC2=O)c1 (configuration not stated) | -25.2%
83 | CC(CCc1ccccc1)NC(=O)CSc1n[nH]c(-c2ccccc2Cl)n1 (configuration not stated) | 3.85%
84 | COc1ccc(OC(=O)c2cn(-c3cccc(OC)c3)c(=O)c3ccccc23)cc1 | -17.3%
85 | Cc1cc(F)ccc1NC(=O)C1CCCN(C(=O)c2cnn(-c3ccccc3)c2-n2cccc2)C1 (configuration not stated) | -0.508%
86 | Cc1ccc(OC(C)C(=O)N2CCN(CCc3ccccn3)CC2)cc1C (configuration not stated) | 19.7%
87 | O=S(=O)(NCC(c1ccco1)S(=O)(=O)c1cccs1)c1ccccc1 (configuration not stated) | 12.1%
88 | Cc1ccccc1NC(=O)CSc1nccn1C | 10.3%
89 | Cc1nnc(N2CCC(C(=O)NC3CCC(C)CC3)CC2)c2nn(-c3ccc(Cl)cc3)c(C)c12 (configuration not stated) | 4.42%
90 | Cc1cccc(N(C)C(=O)Cn2cnc3nc4c(cc3c2=O)CCCC4)c1 | -5.64%
91 | CCN1C(=O)C(Cc2nc3ccccc3c(=O)n2-c2cccc(C)c2)c2ccccc21 (configuration not stated) | 2.62%
92 | CC(C)Oc1ccc(C(=O)NCCc2csc(-c3cccc(F)c3)n2)cc1 | -1.53%
93 | Cc1ccc(-c2noc(-c3ccccc3OCC(=O)Nc3ccccc3[N+](=O)[O-])n2)cc1 | -4.1%
94 | Cc1ccccc1NC(=O)c1c(C)oc2ccc(O)c(CN(C)Cc3ccccc3)c12 | -6.26%
95 | O=C(Nc1ncc(Cc2ccc(F)cc2)s1)c1ccc2c(c1)CC(c1ccccc1)OC2=O (configuration not stated) | 4.72%
96 | Cn1c(CN2CCCCC2)c(C#N)c2ccccc21 | active: 45.6%
97 | CCCC(=O)N1c2nc(-c3ccco3)nn2C2(CCCCC2)[C@@H]2CCCC[C@@H]21 | -5.49%
